Experimental data taken from PMC5537225, “Therapeutic efficacy of a respiratory syncytial virus fusion inhibitor” (Nature Communications, 2017).

Tested on: wild-type rgRSV224
Settings: A549 cells, time-lapse imaging 48 h

## CS(=O)(=O)CCCn1c(Cn2c(=O)n(CC(F)(F)F)c3ccncc32)cc2cc(Cl)ccc21 [JNJ-53718678]
  concentration giving statistically significant inhibition of the infection rate, wild-type RSV: ≥ 1 nM
